Assay results published in PubChem BioAssay AID1634 (National Center for Advancing Translational Sciences (NCATS), 2009).
The campaign covered roughly 260,000 compounds. About 150 (0.058%) were called active. The shares of active, inactive and inconclusive entries below differ from those in the screen. The call rests on the fitted dose curve; in most records, active means well fitted inhibition curve with a large enough effect; inconclusive means small, poorly fitted or top-dose-only effect; inactive means no such curve, though single readings can be large or run the other way. Potencies of inconclusive entries are doubtful fits and often do not repeat.

Biological target: Pyruvate kinase PKM (Homo sapiens) (UniProt P14618)
Test: qHTS Assay for Inhibitors of Human Muscle isoform 2 Pyruvate Kinase; further: nearly all actives have a fitted effect of over 60% in size
Settings: purified PKM2, ATP generation, Kinase-Glo luminescence; series mostly up to 57.5 µM
Method in brief: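 Coupled luciferase luminescence (Kinase-Glo) detects ATP generated from 0.1 mM ADP and 0.5 mM PEP in imidazole buffer pH 7.2 with KCl, MgCl2; 1 h at room temperature. Enzyme at intermediate activity; normalized to uninhibited and no-enzyme controls.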
Potency means the concentration at half of the fitted maximal effect; tags describe the fitted curve by direction and shape.

Sequence of UniProt P14618 (P14618 whole entry, looked up, canonical isoform): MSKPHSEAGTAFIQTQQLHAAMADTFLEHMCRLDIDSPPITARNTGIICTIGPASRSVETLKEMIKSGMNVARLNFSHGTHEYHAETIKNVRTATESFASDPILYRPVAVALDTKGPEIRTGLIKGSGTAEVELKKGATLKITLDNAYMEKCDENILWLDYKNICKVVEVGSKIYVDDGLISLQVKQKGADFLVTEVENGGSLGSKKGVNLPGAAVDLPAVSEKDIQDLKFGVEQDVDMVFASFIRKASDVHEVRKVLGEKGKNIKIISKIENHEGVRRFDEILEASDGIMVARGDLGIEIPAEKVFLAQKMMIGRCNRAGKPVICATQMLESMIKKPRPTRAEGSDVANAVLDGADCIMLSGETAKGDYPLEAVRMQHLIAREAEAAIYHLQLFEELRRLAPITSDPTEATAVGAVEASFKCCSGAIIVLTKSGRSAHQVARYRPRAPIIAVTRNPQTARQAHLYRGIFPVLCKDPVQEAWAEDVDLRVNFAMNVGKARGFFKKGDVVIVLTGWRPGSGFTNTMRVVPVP

Potency, inactive:
Cc1nc(CCN2C(=O)c3ccccc3C2=O)cs1, CCCCCOP(=O)(OCCCCC)C1(NS(=O)(=O)c2ccccc2)C=CC(=O)c2ccccc21 (stereo not drawn), CCOC(=O)c1cnc(SCC(=O)c2ccc3c(c2)OCCO3)nc1N, CC(C)CCOP(=O)(c1ccc(N(C)C)cc1)C(O)c1ccccc1F (stereo not drawn), O=S(=O)(c1ccc2ccccc2c1)N1CCN(S(=O)(=O)N2CCOCC2)CC1, Cc1nc(COC(=O)c2ccc(S(=O)(=O)N3CCCC3)cc2)cs1, N#Cc1c2c(c(N3CCN(CCO)CC3)n3c1nc1ccccc13)CCCC2, Clc1ccc(CSc2nnc(-c3cccnc3)n2Cc2ccco2)c(Cl)c1, O=C(COc1ccc(Cl)cc1Cl)NCC(=O)N/N=C/c1c[nH]c2ccccc12, COc1cccc(/C=N/Nc2ncnc3c2[nH]c2ccc(C)cc23)c1OC, CCn1c2ccccc2c2cc(/C=N/n3c(-c4cc(C)[nH]n4)n[nH]c3=S)ccc21, CNC(=S)N1N=C(c2ccc(Br)cc2)CC1c1ccc(OC)cc1 (stereo not drawn), CCN(CC)S(=O)(=O)c1ccc(S(=O)(=O)N(CC(=O)Nc2ccccc2)Cc2ccco2)cc1, CCOc1ccc(CC(=O)NNC(=S)NCCc2ccccc2)cc1, C/C=C/C=C\C(=O)Nc1cccc(C2=NOC3(C2)C[C@@H](C(N)=O)N(C(=O)c2cc([N+](=O)[O-])cc([N+](=O)[O-])c2C)C3)c1 (stereo partly drawn), COc1ccccc1CNC(=O)C1CCN(S(=O)(=O)c2ccc3c(c2)OCCCO3)CC1, CC(C)c1ccc(/C=C/C(=O)NCCCc2ccccc2)cc1, COc1cccc(-c2nnc(SCC(=O)Nc3cc(C)on3)o2)c1, COc1cc([N+](=O)[O-])ccc1NC(=O)CSc1nccn1C

Potency, inconclusive:
Cc1ccc2cccc(OCC(=O)Nc3ccc(N4CCOCC4)cc3)c2n1 20 µM [falling, single point], Cc1ccc(C(=O)Nc2ncc([N+](=O)[O-])s2)cc1 22.4 µM [falling, partial curve], CCS(=O)(=O)CCSC1OC(COC(C)=O)C(OC(C)=O)C(OC(C)=O)C1OC(C)=O (stereo not drawn) 39.8 µM [falling, single point], CC[n+]1ccc(/C=C/c2ccc(N(C)C)cc2)c2ccccc21 20 µM [falling, partial curve], COC(=O)C1=C(O)/C(=C/c2cccc(OC)c2O)N=C1C 28.2 µM [falling, single point], O=C(Nc1ccc2c(c1)OCO2)c1ccc(Br)o1 10 µM [falling, partial curve], CC(=O)Nc1nc2ccc(C(=O)NCCOC(=O)C3CCCCC3)cc2s1 31.6 µM [falling, single point], CCCCSc1nc(O)cc(=O)n1CC 12.6 µM [falling, partial curve], O=[N+]([O-])c1ccc(NNC(=S)Nc2ccc(F)cc2)cc1 28.2 µM [falling, single point], O=C(Nc1ccccc1N1CCOCC1)c1ccc(N2CCOCC2)c([N+](=O)[O-])c1 7.08 µM [falling, single point], CCc1ccc(OCC(=O)Nc2ncn[nH]2)cc1 8.91 µM [falling, single point], c1ccc(-c2ccc(-c3ccccn3)nn2)nc1 39.8 µM [falling, single point], CSc1ccccc1NC(=O)COC(=O)Cc1cccs1 3.55 µM [falling, full curve], COc1cc2c(cc1NC(=O)/C=C/c1ccccc1)oc1ccccc12 35.5 µM [falling, single point], COC(=O)c1sccc1NC(=O)Nc1ccc(F)cc1 17.8 µM [falling, partial curve], N/C(=N\OC(=O)COc1ccc([N+](=O)[O-])cc1)c1ccncc1 8.91 µM [falling, single point], C/C(=N/NC(=O)c1ccccn1)c1ccco1 28.2 µM [falling, partial curve], Cc1cc(NC(=O)c2cc(C(C)(C)C)oc2C)no1 39.8 µM [falling, single point], CC(C)c1ccc(NC(=O)C[n+]2ccn(C3=C([O-])c4ccccc4C3=O)c2)cc1 35.5 µM [falling, single point], O=C1CN(S(=O)(=O)c2cc(Cl)ccc2Cl)CCN1 35.5 µM [falling, single point], COc1ccccc1NC(C)C(=O)N/N=C/c1cccs1 (stereo not drawn) 39.8 µM [falling, single point], Cc1ccoc1C(=O)Nc1ccc2ccccc2c1 31.6 µM [falling, single point], Cc1ccccc1/C(N)=N/OC(=O)c1cccs1 22.4 µM [falling, single point], O=[N+]([O-])c1cccnc1N/N=C/c1ccccc1O 31.6 µM [falling, single point], Cc1ccc(N/C=C/C(=O)c2cccs2)cc1 22.4 µM [falling, partial curve], C(=C\c1ccc2ccccc2n1)/c1ccccc1 14.1 µM [falling, partial curve], Cc1cc(C)n2c(=S)[nH]nc2n1 31.6 µM [falling, single point], O=C(Nc1nc2cc3c(cc2s1)OCCO3)C1=COCCO1 20 µM [falling, partial curve], O=C(Nc1ccc(-c2cnco2)cc1)c1ccc(Cl)cc1 39.8 µM [falling, single point], COc1ccccc1Nc1n[nH]c(=S)s1 28.2 µM [falling, partial curve], COC(=O)[C@@H]1CCCN1C(=O)CCc1nnc(C2CCCCC2)o1 31.6 µM [falling, single point], O=[N+]([O-])c1cc2oc3c(c2c(C=NCc2ccccc2)c1O)CCCC3 22.4 µM [falling, single point], O=C(c1cccc(NS(=O)(=O)c2cccc([N+](=O)[O-])c2)c1)N1CCOCC1 3.16 µM [falling, single point], CCS(=O)(=O)c1ccc2oc(Nc3ccccc3C)nc2c1 22.4 µM [falling, partial curve], Cc1ccc(C2=Nc3ccccc3N=C(C(Cl)Cl)C2)cc1 28.2 µM [falling, single point], C=CCN(CC=C)c1cnn(-c2nc3ccccc3[nH]2)c(=O)c1Cl 28.2 µM [falling, single point], O=C(O)c1cc(S(=O)(=O)N2CCOCC2)ccc1N1CCCCC1 28.2 µM [falling, single point], O=C(NCC1CCCCC1)c1cccc(S(=O)(=O)NCc2cccnc2)c1 31.6 µM [falling, single point]

Potency, active:
COc1ccc(N2Cc3ccccc3C2=O)cc1 14.1 µM
